Molecules are shown by their SMILES. In all, about 310,000 compounds went through this assay and about 14,000 (4.5%) showed an effect of 50% or more. Effects have a minus sign here. Some of the results follow.
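Further: peak tail current of the secondary pulse compared with the same well before compound.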

human ether-à-go-go-related gene (hERG) potassium channel, sequence (Q12809 whole entry, looked up): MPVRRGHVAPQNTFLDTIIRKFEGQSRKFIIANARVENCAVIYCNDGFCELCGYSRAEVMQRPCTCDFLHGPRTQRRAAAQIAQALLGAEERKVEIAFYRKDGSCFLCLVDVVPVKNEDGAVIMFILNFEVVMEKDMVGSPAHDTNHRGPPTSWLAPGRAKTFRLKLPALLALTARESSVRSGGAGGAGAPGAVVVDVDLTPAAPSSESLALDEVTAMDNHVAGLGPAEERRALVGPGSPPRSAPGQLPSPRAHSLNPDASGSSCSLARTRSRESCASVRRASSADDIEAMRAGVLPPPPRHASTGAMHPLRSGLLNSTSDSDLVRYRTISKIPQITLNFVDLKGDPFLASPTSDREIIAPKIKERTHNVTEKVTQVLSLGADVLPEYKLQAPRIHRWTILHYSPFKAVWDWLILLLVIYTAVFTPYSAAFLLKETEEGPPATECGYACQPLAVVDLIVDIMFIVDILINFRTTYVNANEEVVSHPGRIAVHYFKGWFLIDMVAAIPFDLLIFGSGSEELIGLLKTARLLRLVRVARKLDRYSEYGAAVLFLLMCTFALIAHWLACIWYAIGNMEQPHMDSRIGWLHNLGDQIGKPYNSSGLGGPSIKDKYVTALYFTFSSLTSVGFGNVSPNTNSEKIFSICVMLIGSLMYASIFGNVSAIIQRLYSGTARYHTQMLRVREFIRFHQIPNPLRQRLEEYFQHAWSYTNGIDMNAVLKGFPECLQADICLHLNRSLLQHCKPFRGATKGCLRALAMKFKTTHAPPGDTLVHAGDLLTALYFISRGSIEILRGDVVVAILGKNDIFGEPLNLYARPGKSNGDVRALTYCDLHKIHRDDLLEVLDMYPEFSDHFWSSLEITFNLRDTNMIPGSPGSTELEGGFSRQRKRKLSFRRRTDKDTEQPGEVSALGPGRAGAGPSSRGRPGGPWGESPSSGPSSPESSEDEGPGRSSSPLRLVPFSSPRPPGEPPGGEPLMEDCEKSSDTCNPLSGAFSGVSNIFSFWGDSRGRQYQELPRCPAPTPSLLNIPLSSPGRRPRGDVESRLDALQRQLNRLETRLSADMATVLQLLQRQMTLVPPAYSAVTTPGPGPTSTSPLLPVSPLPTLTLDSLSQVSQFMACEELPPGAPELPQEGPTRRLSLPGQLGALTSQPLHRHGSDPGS

This assay has as its target human ether-à-go-go-related gene (hERG) potassium channel (human, UniProt Q12809). The assay can be described thus: primary screen, population patch clamp on CHO cells stably expressing hERG.
With `COc1ccc(NC(=S)N2CCCC2c2ccc(OC)c(OC)c2)cc1` (stereo not drawn), the “hERG current change (%, negative = inhibition) at 10uM” value turned out to be 1.54%.

Turning to `CC(C)Cn1c(N)c(C(=O)COC(=O)c2cc(C(F)(F)F)nc3c(C(F)(F)F)cccc23)c(=O)n(C)c1=O`, the “hERG current change (%, negative = inhibition) at 10uM” value is 7.27%.

In the case of `N/C(Cc1ccccc1Sc1ccccc1)=N\O.O=C(O)/C=C\C(=O)O`, the “hERG current change (%, negative = inhibition) at 10uM” value is recorded as -22.2%.

For the molecule `COc1ccc(Cc2nc3c4c(ncn3n2)Oc2c(ccc3ccccc23)C4c2ccc(OC)c(OC)c2)cc1` (stereo not drawn), the “hERG current change (%, negative = inhibition) at 10uM” value is reported as 14.7%.

As for `CCCCCCC(C)n1[nH]c(=O)c2c(C)cc(=O)[nH]c21` (stereo not drawn), the “hERG current change (%, negative = inhibition) at 10uM” value is given as -0.0654%.

`Cc1cccc(NC(=O)c2c([N+](=O)[O-])c(C(C)(C)C)nn2C)c1`: the “hERG current change (%, negative = inhibition) at 10uM” value is 12.7%.

`CC(=O)Nc1ccc(S(=O)(=O)N2CCN(C)CC2)cc1`: the “hERG current change (%, negative = inhibition) at 10uM” value was determined as 1.48%.

As for `O=C(O)CCSc1nnc(SCC(=O)NCC(F)(F)F)s1`, the “hERG current change (%, negative = inhibition) at 10uM” value was 7.55%.

As to `O=C(NCc1ccco1)c1ccccc1-c1ccccc1`, the “hERG current change (%, negative = inhibition) at 10uM” value is given as -2.62%.

In the case of `CCOc1cccc2sc(N(CCN(CC)CC)C(=O)c3ccc(S(=O)(=O)N4CCCCC4)cc3)nc12.Cl`, the “hERG current change (%, negative = inhibition) at 10uM” value was -62.4%.

Take `CNS(=O)(=O)c1cc(NC(=O)CCCNC(=O)c2ccc(Cl)cc2)ccc1C`: the “hERG current change (%, negative = inhibition) at 10uM” value was 17.6%.

For the molecule `CCN(CC)C(=O)COc1ccc(-c2ccccc2)cc1`, the “hERG current change (%, negative = inhibition) at 10uM” value is -36%.

Turning to `O=C(Nc1nnc(-c2ccco2)o1)C1CC1`, the “hERG current change (%, negative = inhibition) at 10uM” value is given as 32.2%.

Turning to `O=C(O)CCC(=O)N1CCc2cc(S(=O)(=O)NCc3ccc(Cl)cc3)ccc21`, the “hERG current change (%, negative = inhibition) at 10uM” value was found to be 4.01%.

`COc1cc(C)ccc1OCc1cc(C(=O)N2CCCCCCC2)no1`: the “hERG current change (%, negative = inhibition) at 10uM” value is 9.78%.

In the case of `COc1ccc(N2CCN(c3ncnc4scc(-c5ccc(F)cc5)c34)CC2)cc1`, the “hERG current change (%, negative = inhibition) at 10uM” value is -0.492%.

With `C(=N\N1CCN(C2c3ccccc3-c3ccccc32)CC1)/c1cccnc1`, the “hERG current change (%, negative = inhibition) at 10uM” value is recorded as 2.63%.

Take `COc1ccc(-c2[nH]ncc2-c2nc(C)cs2)c(O)c1`: the “hERG current change (%, negative = inhibition) at 10uM” value stood at 13.5%.

For `O=C(Oc1c(CN2CCOCC2)cc(Cl)c2cccnc12)c1ccc(F)cc1`, the “hERG current change (%, negative = inhibition) at 10uM” value is listed as -37.8%.

Turning to `O=C(CCC1CCCN(Cc2ccc(O)c(Cl)c2)C1)NCc1ccccc1F` (stereo not drawn), the “hERG current change (%, negative = inhibition) at 10uM” value was -43.2%.

Turning to `CCCOC(=O)c1cc(-c2ccc(/C=C3/C(=O)N(C)C(=O)C(C#N)=C3C)o2)ccc1Cl`, the “hERG current change (%, negative = inhibition) at 10uM” value is listed as 8.94%.

`Cc1oc(-c2ccc(Cl)cc2)nc1CS(=O)CC(=O)NCCCN1CCOCC1` (stereo not drawn): the “hERG current change (%, negative = inhibition) at 10uM” value is recorded as -3.95%.

In the case of `CCOc1ccc(C(=O)N2CCN(CCc3ccccc3)CC2)cc1OCC`, the “hERG current change (%, negative = inhibition) at 10uM” value was -78.8%.

`CCOc1ccc(/C=C/C(=O)NCCc2ccc(OC)c(OC)c2)cc1`: the “hERG current change (%, negative = inhibition) at 10uM” value is listed as -10.5%.

With `COc1ccc(N2CCN(CCCNC(=O)C(=O)c3c(C)n(C)c4ccccc34)CC2)cc1`, the “hERG current change (%, negative = inhibition) at 10uM” value is -64.1%.

For `Oc1ccc(-c2[nH]ncc2-c2ccc(Cl)cc2)c(O)c1`, the “hERG current change (%, negative = inhibition) at 10uM” value is -3.33%.

Turning to `COc1ccc(OC)c(/C=N\NC(=O)c2cc3c(ccc4ccccc43)o2)c1`, the “hERG current change (%, negative = inhibition) at 10uM” value was -5.27%.

Consider `Cc1n[nH]c(=O)c2c(NC(=O)COC(=O)c3cccc(OC(F)F)c3)oc(C)c12`, for which the “hERG current change (%, negative = inhibition) at 10uM” value is -18.3%.

With `CCCN(CCC)CCNC(=O)C1CCN(Cc2nc(-c3ccc(Cl)cc3)oc2C)CC1`, the “hERG current change (%, negative = inhibition) at 10uM” value is on record as -60.6%.

In the case of `Cn1c(Cn2nnc3ccccc32)nnc1SCC(N)=O`, the “hERG current change (%, negative = inhibition) at 10uM” value is given as 9.69%.

Consider `CC(=O)c1ccc(-c2nc3c4ccccc4ccn3c2C(C)=O)o1`, for which the “hERG current change (%, negative = inhibition) at 10uM” value is given as -0.222%.

As to `Cc1cc(C(=O)OCC(=O)NC2(C#N)CCCCC2)c(C)o1`, the “hERG current change (%, negative = inhibition) at 10uM” value was determined as 8.21%.

For `O=C(Nc1ccc(F)cc1)c1cccnc1N1CCOCC1`, the “hERG current change (%, negative = inhibition) at 10uM” value is reported as 8.37%.

Turning to `CCNS(=O)(=O)c1ccc(CCC(=O)Nc2ccccc2)cc1`, the “hERG current change (%, negative = inhibition) at 10uM” value was 8.65%.

As for `COC(=O)[C@@H](Cc1ccccc1)NC(=O)NCCc1ccccc1`, the “hERG current change (%, negative = inhibition) at 10uM” value is 18.8%.

As for `CC1CCCCC1NC(=O)CSc1nncs1` (stereo not drawn), the “hERG current change (%, negative = inhibition) at 10uM” value amounted to 17.1%.

`CCOC(=O)CCSc1nc2c(c(C(F)(F)F)c1C#N)CCC2`: the “hERG current change (%, negative = inhibition) at 10uM” value is on record as 3.58%.

Regarding `Cc1c(NC(=O)CN2C(=O)NC(C)(c3ccc4c(c3)OCCO4)C2=O)c(=O)n(-c2ccccc2)n1C` (stereo not drawn), the “hERG current change (%, negative = inhibition) at 10uM” value is recorded as 10.8%.

With `CC1CN(C(=O)c2ccc(COCC(F)(F)F)o2)CC(C)O1` (stereo not drawn), the “hERG current change (%, negative = inhibition) at 10uM” value is reported as 5.66%.

`CCn1c(SCC(=O)N2CCCCC2C)nc2c1c(=O)n(C)c(=O)n2C` (stereo not drawn): the “hERG current change (%, negative = inhibition) at 10uM” value was 7.11%.

For the molecule `CCN(CC(=O)NCC1CCCO1)S(=O)(=O)c1ccc(Cl)cc1` (stereo not drawn), the “hERG current change (%, negative = inhibition) at 10uM” value is recorded as 17.6%.

For `CS(=O)(=O)c1ccc2nc(NC(=O)c3ccco3)sc2c1`, the “hERG current change (%, negative = inhibition) at 10uM” value stood at 1.39%.

On to `COc1ccc(CN2C(=O)NC3(CCCC3)C2=O)cc1F`, for which the “hERG current change (%, negative = inhibition) at 10uM” value is on record as -17.3%.

For `C=CCC(=O)OCCCCCCOc1ccc(C(=O)O)cc1`, the “hERG current change (%, negative = inhibition) at 10uM” value is on record as -3.87%.

With `N#Cc1c(N)c(C(=O)c2ccc(Cl)cc2)n2c1CCC2`, the “hERG current change (%, negative = inhibition) at 10uM” value amounted to 5.5%.

With `Cc1ncoc1C(=O)Nc1nccs1`, the “hERG current change (%, negative = inhibition) at 10uM” value was -0.642%.

As for `C=CCSc1nc(C)c(CC=C)c(=O)[nH]1`, the “hERG current change (%, negative = inhibition) at 10uM” value was determined as 8.83%.

Consider `CC(=O)c1ccc(OCCCC(=O)OCC(=O)N2CCN(c3ccccc3)CC2)cc1`, for which the “hERG current change (%, negative = inhibition) at 10uM” value is listed as 18.7%.

As for `CCc1ccc(C(=O)NNc2ccc(S(N)(=O)=O)cc2)cc1`, the “hERG current change (%, negative = inhibition) at 10uM” value was 9.05%.

For `O=C(CC1SC(N2CCCC2)=NC1=O)Nc1ccc(C(=O)N2CCN(c3cccc(Cl)c3)CC2)cc1` (stereo not drawn), the “hERG current change (%, negative = inhibition) at 10uM” value is on record as 9.33%.

`CC(Sc1nnnn1C1CCCCC1)C(=O)O` (stereo not drawn): the “hERG current change (%, negative = inhibition) at 10uM” value is on record as 18.3%.

For `O=C(Nc1ccc(S(=O)(=O)Nc2nccs2)cc1)c1ccc(=O)[nH]c1`, the “hERG current change (%, negative = inhibition) at 10uM” value was 2.42%.

`Cc1cc(C)c(C#N)c(SCC(=O)c2cccs2)n1`: the “hERG current change (%, negative = inhibition) at 10uM” value is listed as -5.5%.

Consider `O=C(Nc1ccc(Cl)c(-c2nc3ccccc3[nH]2)c1)c1cccnc1`, for which the “hERG current change (%, negative = inhibition) at 10uM” value turned out to be 24%.

Consider `Nc1[nH]c(=S)nc2nc(-c3ccccc3)c(-c3ccccc3)nc12`, for which the “hERG current change (%, negative = inhibition) at 10uM” value was -3.31%.

As for `Cc1cccc(NC(=O)c2oc3c(c2C)C(=O)CC(C)(C)C3)n1`, the “hERG current change (%, negative = inhibition) at 10uM” value is -14.9%.

`COc1ccc(Cl)cc1NC(=O)N1CCC(C)CC1`: the “hERG current change (%, negative = inhibition) at 10uM” value is reported as 5.57%.

The values above are taken from publication PMC4336329 (PLoS ONE, 2015).
